Experimental findings from PubChem BioAssay AID1346428 (National Center for Advancing Translational Sciences (NCATS), 2018) are described below.

Hit rate of the full screen: of about 48,000 compounds, about 1,200 (2.5%) were called active. Another 2% or so got no clear call; they are omitted.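 Rule for the calls: active = activation of at least 60% and not above a set upper limit (about 1 call in 100 departs from these limits); inconclusive = activation of 40% to 60%, or above that upper limit; inactive = activation under 40%.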 The list shows a part of the results.

UniProt O75388, sequence (O75388 whole entry, looked up): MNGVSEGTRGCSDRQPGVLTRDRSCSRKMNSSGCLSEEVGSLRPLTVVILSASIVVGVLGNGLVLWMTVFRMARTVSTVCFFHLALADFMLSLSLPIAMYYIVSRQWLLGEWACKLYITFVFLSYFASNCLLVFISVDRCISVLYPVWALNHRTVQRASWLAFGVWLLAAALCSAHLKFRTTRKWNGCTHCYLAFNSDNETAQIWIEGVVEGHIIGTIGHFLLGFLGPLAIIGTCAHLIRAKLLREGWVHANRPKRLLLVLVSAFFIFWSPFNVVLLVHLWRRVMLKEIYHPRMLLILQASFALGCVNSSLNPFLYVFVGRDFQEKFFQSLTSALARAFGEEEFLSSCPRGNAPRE

The assay concerns the target Probable G-protein coupled receptor 32 (Homo sapiens) (UniProt O75388). Kind of assay: qHTS for Agonists of Human Resolvin D1 Receptor DRV1. To be noted: CHO-K1 GPR32 beta-arrestin PathHunter luminescence, 90 min; at 76.9 µM; hits give high values; zero percent set by DMSO-only wells. A digest of the protocol:
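Beta-arrestin recruitment read-out: luminescence from complemented beta-Gal in CHO-K1 GPR32 PathHunter cells, measured 1 h after detection reagent at ambient temperature following 90 min compound exposure at 37 °C; DMSO served as basal (EC0) control.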
(In qHTS, concentration-response curves come from the screen itself.)
Regarding `Cc1cccc(NC(=O)CSc2nc(=O)n(Cc3cccnc3)c3c2CCC3)c1C`, the activation was inactive: -9.31%. For the compound `C[C@H]1O[C@@H](n2cc(F)c(=O)[nH]c2=O)[C@H](O)[C@@H]1O`, the activation is inactive: -5.08%. `COc1ccc(C(=O)Nc2ccc(N3CCOCC3)c(C(F)(F)F)c2)cc1OC`: the activation was inactive: 37.1%. For `Cc1ccc(Cn2c(C)c(CNC(C)c3ccccc3)c(C(=O)O)c2C)cc1` (centres undefined), the activation was inactive: 0.0382%. On to `Cc1ccc(Cl)cc1N1CCN(c2ncnc3onc(-c4ccc(F)cc4)c23)CC1`, for which the activation was inactive: 7.48%.

`O=C(c1ccc(CS(=O)(=O)c2c(Cl)cccc2Cl)o1)N1CCN(c2ccccc2)CC1`: the activation was inactive: -3.65%. Turning to `Cc1ccc(-n2c(SCC(N)=O)nc3c([nH]c4ccccc43)c2=O)cc1`, the activation is inactive: -17.2%. Take `Cc1cncn1CCc1nc2c3ccccc3nc(SCC(=O)Nc3ccccc3F)n2n1`: the activation was inactive: -16.7%. The value for `CC(C)(C)c1ccc(-c2noc(CCC(=O)Nc3cccc(Cl)c3)n2)cc1` was inactive: 17.1%.

For the compound `Cc1ccc(-c2nnc(Nc3cccc(C(F)(F)F)c3)c3ccccc23)cc1S(=O)(=O)N1CCOCC1`, the activation is inactive: -17.7%.

On to `CCOC(=O)N1CCN(C(=O)CN(c2cc(C)ccc2OC)S(=O)(=O)c2ccc(C)cc2)CC1`, for which the activation was inactive: -7.78%.

Turning to `CCOc1ccccc1CNC(=O)C1CCCN(S(=O)(=O)c2ccc3c(ccn3C)c2)C1` (centres undefined), the activation was inactive: -10.5%.

In the case of `CCc1ccc(-n2nc(C)c3c(C(=O)Nc4cc(C)ccc4C)cc(C)nc32)cc1`, the activation is inactive: 5.71%. The value for `COc1ccccc1N1CCN(c2cc(C)nc3nc(-c4ccc(Cl)cc4)nn23)CC1` was inactive: -17.7%; that for `COc1ccc(OC)c(S(=O)(=O)NCCc2csc3nc(-c4ccccc4)nn23)c1` was inactive: -6.28%. `Cc1ccc(NC(=O)c2cc(S(=O)(=O)N3CCCC3)c[nH]2)c(C)c1`: the activation is inactive: -17.1%. The value for `Cc1cccc(N2CCN(C(=O)c3ccc4c(c3)c(C)c(C)n4C)CC2C)c1` (centres undefined) was inactive: -18.2%; that for `COc1nc(-c2ccc(C)cc2)ccc1-c1noc(-c2ccc(C(C)(C)C)cc2)n1` was inactive: 9.01%.

On to `COC(=O)c1sc2cccc(F)c2c1S(=O)(=O)N1CCN(c2ccc(C)cc2C)CC1`, for which the activation is inactive: -36.8%. The value for `CC1CCN(S(=O)(=O)c2nnc(NC(=O)c3cccc(F)c3)s2)CC1` was inactive: 42.7%; that for `CC(C)NC[C@H](O)COc1cccc2ccccc12` was inactive: -2.66%. The value for `CCOC(=O)c1c(NC(=O)COc2ccc(Cl)cc2C)sc(C(C)=O)c1C` was inactive: -9.85%; that for `CCN1CCN(c2cc(C)c3cc(NC(=O)c4ccccc4F)ccc3n2)CC1` was inactive: -6.41%.

Take `CCc1c(C)c2ccc(O)c(CN3CCN(c4ccccc4)CC3)c2oc1=O`: the activation was inactive: -21.1%. The value for `CC(=O)N1CCc2cc(Br)cc(S(=O)(=O)CCC(=O)Nc3ccc(C)cc3Cl)c21` was inactive: 4.82%; that for `CCOc1ccc2oc(=O)cc(CN3CCN(c4ccc(Cl)cc4)CC3)c2c1` was inactive: -13.4%.

As to `Cc1c(C(=O)N(Cc2ccc(N(C)C)cc2)CC2CCCO2)oc2ccc(Br)cc12` (centres undefined), the activation is inactive: -29.2%. The value for `CCc1cccc(C)c1NC(=O)CN(C)S(=O)(=O)c1cccc2nsnc12` was inactive: 1.47%; that for `Cc1ccc(N2CCN(c3nc4c(S(=O)(=O)c5ccc(C)c(C)c5)nnn4c4ccccc34)CC2)c(C)c1` was inactive: -10.9%; that for `COc1ccc(C)cc1NC(=O)N1CCC(CN2CCC(C)CC2)CC1` was inactive: 5.24%.

For the compound `Cc1ccc(S(=O)(=O)c2cn(C)c3cc(N4CCCCC4)c(F)cc3c2=O)cc1`, the activation is inactive: 6.6%. Take `CCCCn1c(SCC(=O)Nc2ccc(F)cc2)nc2c(sc3ccccc32)c1=O`: the activation was inactive: 7.66%. On to `Fc1ccc(Nc2nc(Nc3ccc(F)cc3)nc(N3CCOCC3)n2)cc1`, for which the activation was inactive: -13.1%. Consider `CC(C)c1ccc(NC(=O)Cn2nnc(C(=O)NCc3cccs3)c2N)cc1`, for which the activation was inactive: -1.88%. Regarding `C[C@H](NC(CCc1ccccc1)C(=O)O)C(=O)N1CCC[C@H]1C(=O)O` (some centres undefined), the activation is inactive: -12.8%. The value for `CCOc1ccc(-c2cc(C(=O)N3CCN(c4cccc(C(F)(F)F)c4)CC3)c3ccccc3n2)cc1` was inactive: -33.7%; that for `COc1ccc(NC(=O)C(=O)NCC2(c3ccccc3)CCCC2)c(OC)c1` was inactive: -26%; that for `CNC(=O)CSc1nnc(NC(=O)Nc2ccccc2)s1` was inactive: 0.773%.

Regarding `Cc1ccc2oc3c(c(=O)c2c1)C(c1ccc(OCC(N)=O)cc1)N(Cc1ccc2c(c1)OCO2)C3=O` (centres undefined), the activation is inactive: 3.59%. The value for `CCOc1ccccc1N(CC(=O)Nc1ccc(OC)c(Cl)c1)S(=O)(=O)c1ccccc1` was inactive: -6.36%. The value for `O=C(CSc1nnc(-c2ccc(Br)cc2)n1-c1ccccc1)c1ccccc1` was inactive: -8.45%; that for `Cc1ccc(N(CC(C)C)S(=O)(=O)c2nnc(NC(=O)c3cccs3)s2)cc1` was inactive: 43.5%. As for `COc1ccc(C(=O)NCC(c2ccc3c(c2)OCO3)N2CCN(c3ccc(F)cc3)CC2)cc1` (centres undefined), the activation is inactive: -28.3%. The value for `CCOCN(C(=O)Cn1cnc2cc(C)c(C)cc21)c1c(C)cccc1CC` was inactive: -3.5%; that for `CCc1ccccc1NC(=O)c1cc(-c2ccc3c(c2)OCO3)on1` was inactive: 7.72%; that for `CCOc1ccc(/C=C/c2nc(C#N)c(N3CCN(c4ccccc4)CC3)o2)cc1` was inactive: -10.5%. The value for `COc1ccc(CNC(=O)CN2C(=O)COc3ccc(S(=O)(=O)N4CCOCC4)cc32)cc1` was inactive: -19.7%; that for `COc1ccc(-c2cn3nc(N4CCC(C(=O)Nc5ccc(C)cc5)CC4)sc3n2)cc1` was inactive: -4.1%; that for `Cc1cccc(Oc2coc3cc(OCC(=O)NC4CCCCC4)ccc3c2=O)c1` was inactive: -11.3%. Consider `COc1ccccc1CNC(=O)Cn1c(=O)ccc2cc(S(=O)(=O)N3CCCC3)ccc21`, for which the activation is inactive: 1.65%. Take `CCOc1ccc(N(CC)S(=O)(=O)N2CCCC(C(=O)NCCc3ccccc3OC)C2)cc1` (centres undefined): the activation is inactive: -28%. Consider `CC1CCCCN1C(=O)CSc1nnc(-c2ccccc2Cl)o1` (centres undefined), for which the activation was inactive: -1.28%. The value for `O=C(Nc1ccc(C(=O)N2CCN(c3ccc(Cl)cc3)CC2)cc1)c1nsc2ccccc12` was inactive: -34.2%. On to `O=c1c(-c2ccc(O)cc2)coc2cc(O)ccc12`, for which the activation was inactive: -4.83%. As for `COc1ccc(Br)cc1CNC(=O)C1COc2ccccc2C1` (centres undefined), the activation was inactive: -19.7%. The value for `Cc1ccc2oc(-c3cc(NC(=O)c4cccs4)cc(C)c3O)nc2c1` was inactive: -2.8%.

Turning to `COc1ccc(C(=O)N2c3ccc(C)cc3C(C)(c3ccccc3)CC2(C)C)cc1` (centres undefined), the activation is inactive: -59.2%. As for `CCc1ccc(CNC(=O)c2c(C)oc3ncn(CC(C)C)c(=O)c23)cc1`, the activation is inactive: -18.5%. The value for `COc1cc(Cl)c(C)cc1NC(=O)Cn1ncc2c3ccccc3n(Cc3ccccc3)c2c1=O` was inactive: -8.63%; that for `O=C(NCCCc1nc2ccccc2n1Cc1ccc(Cl)cc1Cl)c1ccco1` was active: 96.8%; that for `CN(C/C=C/c1ccccc1)Cc1cccc2ccccc12` was active: 117%.

On to `CCN(CC)CCCNC(=O)CN1N=C(c2ccc(OC)cc2)CCC1=O`, for which the activation is inactive: -4.3%. The value for `COc1ccc(CNC(=O)CCCn2c(=O)c3cccn3c3cccnc32)cc1` was inactive: -18.5%; that for `CC(C)c1ccc(OCC(O)CN2CCN(c3ccc(F)cc3)CC2)cc1` (centres undefined) was inactive: -8.02%; that for `COc1ccccc1CN1CCC(CNC(=O)c2cnn(-c3ccc(Cl)cc3)c2C2CCN(C(=O)OC(C)(C)C)CC2)CC1` was inactive: -21.7%. The value for `CCc1ccc(S(=O)(=O)c2c(C(=O)c3ccccc3)cnc3ccc(CC)cc23)cc1` was inactive: -26.7%. As for `O=S(=O)(c1cccc(F)c1)N1CCC(Oc2ccc(-n3cnnn3)cc2)CC1`, the activation is inactive: 2.5%. As to `CCOCCCNC(=O)c1c(NC(=O)Cc2coc3ccc(C)cc23)sc2c1CCC2`, the activation was inactive: -9.87%.

Take `Cc1ccccc1NC(=O)c1ccc(Cl)c(S(=O)(=O)N2CCCCCC2)c1`: the activation was inactive: -1.43%. The value for `CCCCNS(=O)(=O)c1ccc2nc(-c3cccnc3)cc(C(=O)NCCOC)c2c1` was inactive: -9.15%. For the compound `COc1ccc(NC(=O)CSc2nccn2Cc2ccco2)c(OC)c1`, the activation is inactive: -8.3%. The value for `COc1ccc(OC)c(NC(=O)Cc2c(C(=O)O)n(C)c3ccc(C)cc23)c1` was inactive: -0.474%.

For the compound `O=C1c2[nH]nc(-c3ccccc3O)c2C(c2ccc(F)cc2)N1CCO` (centres undefined), the activation is inactive: -8.72%. As to `COc1ccc(-c2nc(SCC(=O)N3CCCCC3C)n[nH]2)cc1` (centres undefined), the activation is inactive: -6.79%.

Consider `CCOC(=O)c1cc(-c2ccc(OC)cc2)n(CCC(=O)Nc2nc3ccc(OCC)cc3s2)c1C`, for which the activation is inactive: -33.9%. The value for `COC(=O)c1cnn(-c2ccc(C(=O)Nc3cc(OC)c(OC)c(OC)c3)cc2)c1N` was inactive: 34.5%; that for `CCOC(=O)c1c(C)sc(-c2c(-c3ccc(OC)c(F)c3)[nH]c3[nH]c(=O)[nH]c(=O)c23)c1O` was inactive: -19.4%; that for `CC1=C(C(=O)Nc2ccc(Cl)cc2)C(c2ccc(C(F)(F)F)cc2)n2nnnc2N1` (centres undefined) was active: 65%. For the compound `CCc1ccccc1NC(=O)CSc1ncc(S(=O)(=O)c2ccc(C(C)C)cc2)c(N)n1`, the activation is inactive: -32%. The value for `Cc1ccc(CN(Cc2ccco2)C(=O)c2ccc(Cl)cc2)o1` was inactive: -17.7%; that for `CCc1ccc(-n2c(=O)c3c(C)c(C(=O)N(C)C)sc3n(Cc3ccccc3C#N)c2=O)cc1` was inactive: 0.29%; that for `CCc1cccc(C)c1Nc1c(-c2cccc(O)c2)nc2nc(C)cc(C)n12` was inactive: -25.5%. The value for `COCCCNC(=O)c1ccc(Cn2c(SCc3cccc(C)c3)nc3cccnc32)cc1` was inactive: -18.5%. With `Cc1ccc(C)c(N2CCN(C(=O)c3cc(S(=O)(=O)N4CCCCCC4)cn3C)CC2)c1`, the activation is inactive: -14.2%.
